Results as given in the supplement of paper PMC3334620.
Whole data set: some 33,000 sequences, median “E-score (-0.5 to 0.5)” near -0.035, cut for the highest 2% near 0.35. Some of the results follow.

molecular target: T1, Pdr3 (UniProt P33200); assay: PBM E-score (8-mer binding enrichment) (E-score (-0.5 to 0.5)); higher = stronger / more preferred TF binding; most listed sequences are background and not binding sites; conditions: protein concentration: 200 nM; construct: GST-full length
T1 sequence: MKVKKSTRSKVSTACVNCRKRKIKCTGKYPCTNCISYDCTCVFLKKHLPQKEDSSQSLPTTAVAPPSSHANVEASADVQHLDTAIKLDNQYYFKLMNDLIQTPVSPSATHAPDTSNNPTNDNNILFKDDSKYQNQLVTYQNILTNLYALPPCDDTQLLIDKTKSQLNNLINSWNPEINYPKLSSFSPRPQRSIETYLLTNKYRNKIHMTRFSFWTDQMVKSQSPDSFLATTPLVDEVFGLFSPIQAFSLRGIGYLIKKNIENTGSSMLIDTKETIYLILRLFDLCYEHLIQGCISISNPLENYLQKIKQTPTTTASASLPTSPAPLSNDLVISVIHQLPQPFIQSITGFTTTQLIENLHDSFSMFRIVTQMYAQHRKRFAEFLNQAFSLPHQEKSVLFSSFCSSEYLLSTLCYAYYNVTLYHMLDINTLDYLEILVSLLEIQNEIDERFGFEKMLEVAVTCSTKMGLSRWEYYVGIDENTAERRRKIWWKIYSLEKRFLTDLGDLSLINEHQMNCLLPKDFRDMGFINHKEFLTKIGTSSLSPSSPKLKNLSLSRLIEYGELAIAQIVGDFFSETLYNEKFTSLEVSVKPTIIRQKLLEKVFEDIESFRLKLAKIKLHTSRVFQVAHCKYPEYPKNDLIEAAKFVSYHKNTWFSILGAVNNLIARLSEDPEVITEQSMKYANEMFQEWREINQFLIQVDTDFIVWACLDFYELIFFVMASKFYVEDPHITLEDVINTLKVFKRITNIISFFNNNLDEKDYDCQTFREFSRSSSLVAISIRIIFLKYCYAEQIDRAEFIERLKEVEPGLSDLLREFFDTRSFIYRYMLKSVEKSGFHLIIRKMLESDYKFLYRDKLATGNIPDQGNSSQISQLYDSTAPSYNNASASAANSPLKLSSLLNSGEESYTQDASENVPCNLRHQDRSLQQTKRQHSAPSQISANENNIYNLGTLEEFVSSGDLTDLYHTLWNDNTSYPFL
Procedure, shortened: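 Masliner-normalised scans of fluorescent anti-GST signal were the basis for scoring. That signal came from GST-tagged yeast transcription factors applied at about 100-200 nM to double-stranded universal all-10-mer Agilent arrays on fresh or once-stripped slides. Each ungapped eight-base word, pooled with its reverse complement, received an E-score from the Universal PBM Analysis Suite.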

| Sequence | PBM E-score |
| --- | --- |
| CCTGGCAA | -0.0427 |
| GGCCTCGA | -0.0838 |
| CAAAAAGA | -0.085 |
| CGTTAGGC | -0.188 |
| ACCCAGAG | -0.132 |
| CTACGACA | 0.0229 |
| CCCGCCAG | 0.0336 |
| CTCGGAGC | 0.276 |
| AACCTACT | -0.0775 |
| CATTTCCG | 0.411 |
| AAGGGTGC | -0.192 |
| TAGTCTCA | -0.119 |
| ACCCCACA | -0.0531 |
| AACATATA | 0.0565 |
| AGGGCTGG | -0.0783 |
| CTAAGTTC | -0.0571 |
| CGGGGGGA | -0.0427 |
| GACCCGTC | 0.214 |
| CATTTGGA | -0.0375 |
| AGAGTTCA | -0.245 |
| CACCGACC | 0.0698 |
| CAAGCAAG | -0.0908 |

| Sequence | PBM E-score |
| --- | --- |
| AATGTTAA | -0.0154 |
| ACTGCGAT | 0.0238 |
| AGACCGCA | -0.0798 |
| GGAGATCC | 0.16 |
| AATGTCTA | -0.254 |
| TTGCAAAA | -0.0444 |
| GTATTCCA | 0.0986 |
| CGAAGTGC | 0.0376 |
| CCTAGGCG | -0.109 |
| TTACTAAA | -0.135 |
| GGGGGCCA | -0.0282 |
| ATTACTAA | -0.0285 |
| ACCCATTC | 0.111 |
| ATACTATG | 0.128 |
| ACATGCTG | -0.158 |
| ATAATGGA | 0.0808 |
| GTCAGAAA | -0.183 |
| ACACAACC | -0.0449 |
| CATGATTC | -0.0509 |
| AATAAAAC | -0.0958 |
| GGCAAGTA | 0.0167 |
| CGTGCAGC | 0.112 |

| Sequence | PBM E-score |
| --- | --- |
| CTACACAC | -0.178 |
| AATAAGCG | -0.151 |
| CCCGTAGC | -0.118 |
| CAACGTTA | -0.189 |
| GACGGGGC | 0.112 |
| AATTCACA | 0.0469 |
| CTTTGCGC | -0.00912 |
| CATTTCGC | 0.135 |
| ATCAAGCG | 0.0362 |
| AAAATGAA | -0.187 |
| CGACGGAC | 0.342 |
| GATGTGTA | -0.101 |
| CCATTGGA | -0.111 |
| GTTACTCA | 0.00677 |
| CTTGCGCA | 0.0862 |
| CCGACGGC | 0.237 |
| CGTGATGC | 0.049 |
| CGGGATGC | 0.311 |
| GCGCATTA | 0.212 |
| AGATCTTA | -0.163 |
| AAATGCGG | 0.231 |
| CACCACCA | -0.0856 |

| Sequence | PBM E-score |
| --- | --- |
| CCTTAACG | 0.139 |
| ACATGCGT | -0.265 |
| ACAATGTG | -0.0811 |
| GTTTGAAA | -0.0863 |
| CGCTTACC | -0.0482 |
| GCCACATA | -0.0989 |
| CCTTTCAG | -0.185 |
| GGAGCGCA | 0.0206 |
| CAAGTTAC | -0.0624 |
| CCTTATGA | -0.0406 |
| CGAGGAAG | 0.0123 |
| AGTGCGTA | -0.207 |
| GAAGGATC | 0.0085 |
| ACCACGTA | -0.182 |
| CGTGAGCA | -0.0989 |
| CAATACCG | 0.13 |
| ACTTCTCA | -0.287 |
| GACAGTGC | 0.125 |
| CGCTTCCA | -0.00125 |
| GTTTGGAA | -0.0486 |
| ATTTTACC | 0.194 |
| GGACAGAC | 0.116 |

| Sequence | PBM E-score |
| --- | --- |
| CGCGACAC | 0.145 |
| ATAGGCGG | 0.216 |
| AACTATAT | -0.0385 |
| AGTAGCTG | -0.132 |
| CGTGCTAG | -0.276 |
| GAGGCGTA | -0.0236 |
| CGTGTCAA | -0.205 |
| CAGTCCCG | 0.273 |
| GCGATTAA | 0.079 |
| TCAGACCA | -0.0674 |
| GAACTAAA | 0.0787 |
| AGCTTGAA | -0.0457 |
| ATCATCTG | 0.0534 |
| AAGATTTC | 0.156 |
| ACCATTTG | -0.0766 |
| ACTTCGAT | 0.046 |
| CGCTACTC | 0.0433 |
| AAGGGGTG | -0.187 |
| GCCTGCAA | -0.182 |
| AGTGTAGC | -0.0872 |
| AGAGCTAG | -0.27 |
